Laboratory results from PubChem BioAssay AID651820 (National Center for Advancing Translational Sciences (NCATS), 2012).
Out of some 340,000 compounds screened, about 12,000 (3.5%) were called active. The inconclusive results got no clear call from the source; some entries with a clear call stand among them for comparison. Calls follow the shape of the dose curve; as a rule, active = well fitted inhibition curve with a large enough effect; inconclusive = small, poorly fitted or top-dose-only effect, or another doubt; inactive = no such curve, though single readings can be large or run the other way. Potencies of inconclusive entries are left out as doubtful fits.

Test: qHTS Assay for Inhibitors of Hepatitis C Virus (HCV)
Conditions: Huh7.5.1 HCVcc-Cre (HCVcc is cell-culture hepatitis C virus) infection, luciferase reporter, 44 h; activity change, negative = inhibition: at 41.8 µM (top of the series) unless noted
How it was run: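 Antiviral activity was scored by luciferase reporter output from cells infected with HCVcc-Cre (~0.5 moi) in presence of compound, 44 h infection period, cells seeded 1,000/well 4 h prior.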
% is scaled to controls: 0 for no effect and ±100 for the full control effect; potency is read from the fitted curve at half-maximal effect; tags tell the direction and shape of the fitted curve.

Structure (SMILES) | Potency | activity change, negative = inhibition
Brc1ccc(-c2nnc(-c3ccccc3)c(N3CCSCC3)n2)cc1 | inconclusive [inhibitor, single point] | 
COc1ccc([N+](=O)[O-])c(S(=O)(=O)c2ccccc2)n1 | inconclusive [inhibitor, single point] | 
Cc1cccc(C)c1-n1c(SCC(=O)N2CC(=O)Nc3ccccc32)nc2ccccc2c1=O | inconclusive [inhibitor, single point] | 
O=C(CCNC(=O)c1ccc([N+](=O)[O-])cc1)Nc1ccccc1N1CCCCC1 | inconclusive [inhibitor, partial curve] | 
COc1ccc(C(=O)OCC(=O)c2ccc(C3CCCCC3)cc2)cc1 | inconclusive [inhibitor, full curve] | 
Cc1ccc(/C(N)=N/OC(=O)/C=C/c2ccccc2)cc1 |  | inactive: -1.9%
COC(=O)c1ccc2c(=O)n(CC3CCCO3)c(SCC(=O)Nc3ccccc3Cl)nc2c1 (configuration not stated) |  | inactive: -2.73%
COc1ccc(-c2c([C@H]3[C@H]4C=CC[C@@H](C)[C@@H]4C(=O)N3Cc3ccccc3)ccc3ccccc23)cc1OC | inconclusive [inhibitor, full curve] | 
COc1ccc(C(=O)Nc2nc(CC(=O)NCCc3cccc(OC)c3)cs2)cc1 | inconclusive [inhibitor, partial curve, poor fit] | 
CC(C)CN(CC(C)C)CC(O)CN(c1ccccc1)S(=O)(=O)c1ccccc1[N+](=O)[O-] (configuration not stated) | inconclusive [inhibitor, single point] | 
CCN(CC)S(=O)(=O)c1ccc(N2CCOCC2)c(NS(=O)(=O)c2ccc(C)cc2)c1 |  | inactive: 0.314%
Cc1ccc([N+](=O)[O-])c(OCCn2cnc3ccccc32)c1 | inconclusive [inhibitor, single point] | 
O=C(Nc1ccc(-c2nc3ccccc3[nH]2)cc1)c1ccco1 | inconclusive [inhibitor, full curve] | 
Cc1cc(Nc2ccccc2O)c2ccccc2n1 | inconclusive [inhibitor, single point] | 
O=C(Cn1ccc([N+](=O)[O-])n1)Nc1nc2ccccc2s1 |  | inactive: 8.19%
CCOc1cc(Br)c(COc2ccc(C)nc2[N+](=O)[O-])cc1OCC | active: 8.91 µM | 
O=C(CCCn1c(=S)[nH]c2ccccc2c1=O)NC1CCCCC1 | inconclusive [inhibitor, single point] | 
Cc1ccc(S(=O)(=O)NCC(=O)N(CC(=O)NCC2CCCO2)Cc2ccccc2)cc1 (configuration not stated) | inconclusive [inhibitor, single point] | 
Cc1ccc(NC2CCCCC2NS(=O)(=O)c2ccccc2)c(C)c1 (configuration not stated) | inconclusive [inhibitor, single point] | 
Cc1c(NC(=O)COc2cccc(Cl)c2Cl)c(=O)n(-c2ccccc2)n1C |  | inactive: -13%
COC(=O)c1cn(C(=O)c2ccc(C)cc2)c2ccccc12 |  | inactive: -29.4%
C=CCn1c(Sc2ncc([N+](=O)[O-])s2)n[nH]c1=O | active: 6.31 µM | 
O=C(CNC(=O)c1cccs1)Nc1ccncc1 |  | inactive: 7.11% [at 8.37 µM]

Structure (SMILES) | Potency | activity change, negative = inhibition
C=CCCC(=O)Nc1nc(C)c(-c2csc(Nc3cc(Cl)ccc3OC)n2)s1 | inconclusive [inhibitor, partial curve] | 
CC(=O)c1c(C)[nH]c(C(=O)NC2CCSc3ccccc32)c1C (configuration not stated) | inconclusive [inhibitor, partial curve] | 
COc1cc2c(cc1OC)C(=S)NC1(CCCC1)C2 | inconclusive [inhibitor, single point] | 
COc1ccc(C(=O)Nc2ccc3oc(Cc4ccc(Cl)cc4)nc3c2)cc1OC | active: 11.2 µM | 
C=CCn1c(N)c(C(=O)Nc2cccc(C)c2)c2nc3ccccc3nc21 | inconclusive [inhibitor, single point] | 
CC(C)NS(=O)(=O)c1ccc(OCC(=O)Nc2cccc3ccccc23)cc1 | inconclusive [inhibitor, single point] | 
CCCCNc1c(-c2ccc(OC)c(Sc3ccc(OC)cc3)c2)nc2ccc(Cl)cn12 | inconclusive [inhibitor, single point] | 
CCOc1ccc(C(=O)OCC(=O)NCc2ccccc2)cc1OCC | inconclusive [inhibitor, single point] | 
O=C1c2ccc(-c3ccc(F)cc3OCc3ccccc3)cc2S(=O)(=O)c2cccc(C(=O)N3CCN(c4ncc(Cl)cc4Cl)CC3)c21 | inconclusive [inhibitor, partial curve] | 
COc1ccc(OC)c(NC(=O)C2C3CCC(C3=C(C)C)C2C(=O)O)c1 (configuration not stated) | inconclusive [inhibitor, partial curve] | 
CC(=O)NCC(=O)NC1CCCc2c1cnn2-c1ccccc1F (configuration not stated) |  | inactive: 11.3%
CC(OC(=O)CC(C)c1ccccc1)C(=O)Nc1ccc(Cl)cn1 (configuration not stated) |  | inactive: -11.3%
Cc1ccc(NC(=O)c2cc(=O)c3ccccc3o2)cc1S(=O)(=O)N1CCCCC1 | inconclusive [inhibitor, partial curve] | 
CCC(Sc1nc(C)cc(C)n1)C(=O)NC1=NN=C(c2ccc(C)cc2)CS1 (configuration not stated) | inconclusive [inhibitor, single point] | 
CN(C)CCNCCCNc1c2ccccc2nc2cccc([N+](=O)[O-])c12 | inconclusive [inhibitor, full curve, poor fit] | 
Cc1ncc(CN2CCCC(C(=O)Nc3ccc(-c4cccc(F)c4)cc3)C2)n1C (configuration not stated) | active: 3.55 µM | 
CCOc1cc(/C=N/Nc2nc(-c3cccc(S(=O)(=O)N4CCCC4)c3)cs2)ccc1O | active: 10 µM | 
COc1ccc(Cc2nc3ccc(C(=O)N4CCN(C)C(C)C4)cc3o2)cc1OC (configuration not stated) | inconclusive [inhibitor, full curve] | 
CC(=O)CSc1nc2c(c(=O)[nH]c(=O)n2C)n1CCCc1ccccc1 | inconclusive [inhibitor, partial curve] | 
NS(=O)(=O)c1ccc(NC(=S)Nc2ccn(Cc3cccc4ccccc34)n2)cc1 | active: 10 µM | 
COc1ccc(NCC(=O)N/N=C/C=C\c2ccccc2)cc1 |  | inactive: 0.203%
COc1ccc(-c2cc(-c3n[nH]c(=S)n3-c3cc(OC)ccc3OC)[nH]n2)cc1 |  | inactive: -38.2%
CCC(=O)Nc1cc2c(cc1C(C)=O)OCCO2 | inconclusive [inhibitor, full curve] | 

Structure (SMILES) | Potency | activity change, negative = inhibition
Clc1ccc(CN2C3=NCCCN3c3ccccc32)cc1 | inconclusive [inhibitor, partial curve] | 
O=[N+]([O-])c1ccc(S(=O)(=O)NCCS(=O)(=O)N2CCN(c3ccccc3)CC2)cc1 | inconclusive [inhibitor, single point] | 
Cc1ccc(C)c(OCCCC(=O)Nc2ccccc2C(N)=O)c1 |  | inactive: -23.3%
Cc1ccc(SCC(=O)OCC(=O)NCCc2ccc(S(N)(=O)=O)cc2)c(C)c1 |  | inactive: 10.4%
O=C1C2C3C=CC(C3=C(c3ccccc3)c3ccccc3)C2C(=O)N1Cc1ccccc1 (configuration not stated) | active: 11.2 µM | 
Cc1nc(NC(=O)c2cccs2)ccc1Br | inconclusive [inhibitor, partial curve] | 
COc1ccc(CN2CCCC(C(=O)c3ccc(Cl)cc3)C2)cc1Cn1cncn1 (configuration not stated) | inconclusive [inhibitor, partial curve] | 
Cn1c(C(=O)NCCc2ccsc2)cc2c(=O)n(C)c3ccccc3c21 | inconclusive [inhibitor, partial curve] | 
CN(C(=O)c1cccc(NC(=O)Cc2ccc(NC(=O)C3CCN(C(=O)c4ccccc4)CC3)cc2)c1)C1CCC1 |  | inactive: 10.4% [at 8.37 µM]
CCN1CCN(Cc2nc(N)nc(Nc3ccc(C)c(C)c3)n2)CC1 | inconclusive [inhibitor, partial curve] | 
CC(OC(=O)c1ccc(C#N)cc1)C(=O)Nc1ccc(Cl)cn1 (configuration not stated) |  | inactive: 9.28%
O=C(CNC(=O)c1ccccc1F)N/N=C/c1cc(Br)ccc1OC(=O)/C=C/c1ccco1 | active: 6.31 µM | 
CCc1ccccc1N1CC(C(=O)N2Cc3ccccc3CC2C(N)=O)CC1=O (configuration not stated) |  | inactive: -17.7%
CCCSC1=C(C#N)C(c2ccc(Cl)cc2Cl)CC(=O)N1 (configuration not stated) | inconclusive [inhibitor, full curve, poor fit] | 
O=[N+]([O-])c1ccc(NCCCN2CCOCC2)c(Cl)c1 | inconclusive [inhibitor, partial curve, poor fit] | 
COc1ccc(CNC(C)C23CC4CC(CC(C4)C2)C3)c(OC)c1OC (configuration not stated) | inconclusive [inhibitor, single point] | 
CN(c1ccccc1)S(=O)(=O)c1ccc(Cl)c(C(=O)NCCc2c[nH]c3ccccc23)c1 | inconclusive [inhibitor, single point] | 
COc1cccc(NC(=S)NCc2ccc3c(c2)cc(C)n3C)c1 | inconclusive [inhibitor, partial curve] | 
N#CCSc1nc2cc(C(=O)N3CCC(C(N)=O)CC3)ccc2c2nc3ccccc3n12 | inconclusive [inhibitor, single point] | 
Cc1ccc(-c2nn(-c3ccccc3)cc2C(=O)NCC(c2cccs2)N2CCOCC2)cc1 (configuration not stated) | inconclusive [inhibitor, single point] | 
COC(=O)C1Cc2c([nH]c3ccccc23)C(C(C)C)N1 (configuration not stated) | inconclusive [inhibitor, full curve] | 
